Laboratory results reported in PubChem BioAssay AID493208 (National Center for Advancing Translational Sciences (NCATS), 2011).
The whole screen tested about 44,000 compounds, of which about 340 (0.77%) were called active. About 5% were inconclusive and are not listed. Calls follow the shape of the dose curve; as a rule, active = well fitted inhibition curve with a large enough effect; inconclusive = small, poorly fitted or top-dose-only effect; inactive = flat fitted curve, though single readings scatter. The list shows a part of the results.

Experiment: Acumen qHTS Assay for Inhibitors of the mTORC1 Signaling Pathway in MEF (Tsc2-/-, p53-/-) Cells: Sytravon;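 also: plate controls were DMSO for no effect and rapamycin for full effect; nearly all actives have a fitted effect of over 50% in size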
Conditions: phospho-rpS6 immunofluorescence/PI, 24 h; series mostly up to 38.3 µM; activity change, negative = inhibition: at the top concentration
Procedure, shortened: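 Plate MEFs (Tsc2-/-, p53-/-, empty vector) in DMEM/10% FBS; after 24 h add compound, incubate 24 h at 37 degree Celsius; fix in PFA/TX-100, block, stain phospho-rpS6 and 10 uM PI; scan at 488 nm; report % positive cells.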

Activity change, negative = inhibition, inactive:
O=C(Nc1nnc(N2CCCCCC2)s1)Nc1ccccc1C(F)(F)F 0%, COc1cc(C(=O)Nc2nc3c(s2)Cc2c(Br)ccc(OC)c2-3)cc(OC)c1OC 0.278%, COc1ccc(Cl)cc1NC(=O)CSc1c2c(nc3ccccc13)CCC2 -10.5%, CCN(c1ccccc1)S(=O)(=O)c1ccc(NC(=O)c2cc(=O)c3cc(C)ccc3o2)cc1 0%, O=C(c1ccc2c(c1)N(Cc1ccc(F)cc1)C(=O)c1ccccc1S2=O)N1CCOCC1 (stereo not drawn) -3%, CCc1cccc(CC)c1NS(=O)(=O)c1ccc2c(c1)CCN2C(=O)C1CC1 -11.8%, COc1ccccc1-c1nnc(SCCOc2ccccc2C)o1 -1.48%, CCOC(=O)c1cc(-c2ccc(OC)c(S(=O)(=O)Nc3ccc(OC)cc3OC)c2)on1 -5.4%, Cc1ccc(CNC(=O)c2nnc(Cc3cccc(F)c3)o2)cc1 3.12%, COC(=O)c1sccc1S(=O)(=O)N1CCN(c2ccccc2OC)CC1 0%, O=C(Nc1ccc2nc(SCCOc3ccccc3Cl)sc2c1)c1cccs1 -13.9%, COc1ccc(N2CC(C(=O)Nc3ccc(NC(C)=O)cc3)CC2=O)cc1 (stereo not drawn) -0.0828%, COCCCNC(=O)C(=O)NCC(c1ccc2c(c1)OCO2)N1CCOCC1 (stereo not drawn) -9.17%, CCN1C(=O)c2ccccc2S(=O)c2ccc(C(=O)NCc3ccc(F)cc3)cc21 (stereo not drawn) -3.51%, Cc1ccc(C)c(S(=O)(=O)c2nnn3c2nc(N2CCOCC2)c2sccc23)c1 -7.32%, COc1ccc(NC(=O)C2=C(C)Nc3nc(CCCO)nn3C2c2ccc(O)cc2)cc1 (stereo not drawn) 1.71%, CC(C)N(Cc1ccccc1)c1ncnc2c1nnn2C 2.06%, CCOc1ccc(C(c2c(O)cc(C)n(CCOC)c2=O)N2CCN(c3ccccc3F)CC2)cc1 (stereo not drawn) 1.59%, Cc1ccc(CNC(=O)CCSCc2ccccc2F)cc1 13.7%, O=C(NCc1cccnc1)c1nn(-c2ccccc2F)nc1CO 0.445%, CCc1cccc(NC(=O)CCc2c(C)nc3c(c2C)c(=O)n(C)c(=O)n3C)c1 0.979%, Cc1cc(C)c2oc(C(=O)Nc3sc4c(c3C(=O)NCc3ccco3)CCCC4)cc(=O)c2c1 2.15%, Cc1ccc(N(C(=O)COc2ccccc2C)S(=O)(=O)c2ccc(Cl)cc2)cc1 6.2%, Cc1ccc(NC(=O)c2cccc(N3CCCS3(=O)=O)c2)cc1 0%, COc1ccccc1NC(=O)Cn1c(=O)n(-c2ccc(C)cc2)c(=O)c2ccc(C(=O)NCc3ccco3)cc21 2.65%, COc1ccccc1N1CCN(c2ccc(=O)n(CC(=O)Nc3ccc(F)c(F)c3)n2)CC1 -0.208%, Cc1c(NC(=O)c2ccc(Cl)cc2)cc(C(C)C)c(O)c1S(=O)(=O)c1ccc(Cl)cc1 -2.37%, CCOCCCNC(=O)c1ccc(NC(=O)N2CCCCc3ccccc32)cc1 1.87%, O=C(NCc1ccc(Cl)cc1)C1CCCN(C(=O)c2cnn(-c3ccc(F)cc3)c2-n2cccc2)C1 (stereo not drawn) -5.88%, O=C(CCn1c(=O)c2cccn2c2ccc(F)cc21)NCCc1ccccc1 -2.63%, CCCc1cc(C(=O)Nc2c(C)nn(Cc3ccc(C)cc3)c2C)no1 -27.3%, Cc1ccc(C)c(Nc2cc(C(=O)NC3CCCCC3)c3ccccc3n2)c1 -8.23%, CCC(=O)N1CCc2cc(CNC(=O)C(CC)c3ccccc3)ccc21 (stereo not drawn) -2.66%, COc1ccc(-c2nc(CN3CCC(C(=O)NCCCOC(C)C)CC3)c(C)o2)cc1OC -7.63%, COc1cccc(-n2cc(C(=O)NCc3ccccc3OC)c3ccccc3c2=O)c1 3.5%, Cc1ccccc1Cn1c(=O)n(CCc2ccccc2)c(=O)c2c(C)c(C)sc21 0.953%, COc1cccc(OCCSc2nc3ccccc3n2CC(=O)N2CCCCC2)c1 0.45%, COC(=O)c1cc(S(=O)(=O)NCC2CCN(Cc3cccc(F)c3)CC2)c[nH]1 6.98%, CCc1cc2c(cc3c(=O)n(CC(=O)NCCc4ccc(OC)c(OC)c4)ncn32)s1 -8.53%, COC(=O)CSc1nc(-c2ccc(F)cc2)cc(C(F)(F)F)n1 -13.1%, O=C(CCn1ccc2cc(S(=O)(=O)N3CCCC3)ccc21)NCc1cccc(F)c1 -1.82%, COc1cc(OC)c(C2Nc3ccccc3-c3nnc(SCc4ccccc4)nc3O2)cc1OC (stereo not drawn) -8.33%, COc1ccc(OC)c(C2N=C(N)Nc3nc4ccccc4n32)c1 (stereo not drawn) 1.1%, COc1ccc(NC(=O)Cn2c(=O)n(Cc3nc(C)no3)c(=O)c3cc4c(cc32)OCO4)cc1OC -5.73%, Cc1cccc(C)c1-n1ncc(C(=O)NCCN2CCOCC2)c1C1CCN(C(=O)OC(C)(C)C)CC1 2.03%, Cc1nc(-c2ccc(Cl)cc2)sc1CCNC(=O)c1ccc(C(F)(F)F)cc1 0.44%, Cc1ccc(C)c(NC(=O)CCn2nc(C)c3c(C)n(-c4ccccc4)nc3c2=O)c1 -1.22%, Cc1cccc(-c2nn3c(=O)cc(CN4CCN(S(=O)(=O)c5ccc(Cl)cc5)CC4)nc3s2)c1 9.33%
